# PubChem BioAssay AID540317 (National Center for Advancing Translational Sciences (NCATS), 2011)
# The whole screen tested about 390,000 compounds, of which about 2,200 (0.56%) were called active. The inconclusive results got no clear call from the source; some entries with a clear call stand among them for comparison. Calls come from the whole dose curve; as a rule, active = well fitted inhibition curve with a large enough effect; inconclusive = small, poorly fitted or top-dose-only effect; inactive = no such curve, though single readings can be large or run the other way. A potency beside an inconclusive call is a rough fit, not a confirmed value.
# Target: Chromobox protein homolog 1 (Homo sapiens) (UniProt P83916)
# Assay: HTS for Inhibitors of HP1-beta Chromodomain Interactions with Methylated Histone Tails; note: nearly all actives have a fitted effect of over 70% in size
# Conditions: AlphaScreen HP1-beta / biotin-H3K9me3 peptide binding; series mostly up to 114 µM; activity change, negative = inhibition: at the top concentration
# Text: As our understanding of epigenetics expands, it is becoming clear that players in this field are potential targets for drug development. This area of epigenetic therapy has established applications for the treatment of cancer and neurological diseases. We have been involved in this field for a number of years and have performed high-throughput screens to identify the first small molecule inhibitors of protein methyltransferases. These methyltransferases target multiple substrates, and thus regulate many arms of an epigenetic pathway. The methylation of different substrates often generates docking sites for effector proteins that harbor binding domains (chromo, tudor, PHD, MBT and ANK repeats). It has been proposed that the binding sites generated for different proteins by these post-translational modifcations mediate downstream effects on chromatin. Consistent with this theory, di- and tri-methylation of histone H3K9 facilitates the binding of heterochromatin protein HP1. The HP1 protein harbors a chromodomain that is responsible for the methyl-dependent interaction between HP1 and lysine 9 of histone H3. HP1 was first described in flies as a heterochromatin associated protein that can regulate gene silencing. It harbors a chromodomain that binds H3K9me3. In addition, it harbors a chromoshadow domain that interacts with a large number of proteins that are involved in heterochromatin formation and gene repression. There are three highly related HP1 isoforms. All three variants are associated with pericentric heterochromatin and it is not clear whether they have specific or redundant functions. MPP8 is also involved in the repression of gene in euchromatic regions (unpublished data) and like HP1 its chromodomain binds H3K9me3. MPP8 harbors an ankyrin repeat region that is likely involved in binding and recruiting interacting proteins with transcriptional repressive function, much like the chromoshadow domain of HP1 does. We hypothesize that by inhibiting specific protein-protein interactions we will be able to develop compounds that block a single arm of an epigenetic pathway. The specificity attained by blocking a single protein-protein interaction will be far greater than that attained by blocking the enzyme that regulates one of many interactions. Low-affinity protein-protein interactions (Kd in the single- to double-digit micromolar range) such as those discussed here have been very difficult to assay by traditional techniques such as fluorescence polarization or fluorescence resonance energy transfer. We have developed a sensitive chemiluminescence-based assay (Quinn, et al. 2009), which serves as the starting point for this project. The following is a validation assay to identify lead compounds that can block methyl-dependent protein-protein interactions (specifically HP1-beta), which can be used as probes to analyze these methyl-driven interactions and perhaps even developed into targeted epigenetic therapies. NIH Chemical Genomics Center [NCGC] NIH Molecular Libraries Probe Centers Network [MLPCN] MLPCN Grant: DA031087 Assay Submitter (PI): Mark Bedford, University of Texas, Medical Anderson Cancer Center, TX
# To each well, 2 uL of HP1-beta protein (final 50 nM) and 1 uL biotinylated histone peptide trimethylated at Lys9 [b-H3(1-18)K9me3] (final 50 nM) was added in 1x PBS buffer, pH 7.4, containing 0.01% Tween-20 using a nanoliter dispenser. Formation of a protein-peptide complex proceeded at room temperature for 30 min. A Kalypsys pin-tool was employed to transfer 23 nL of library compound solution in DMSO to each well. Aurintricarboxylic acid (ATA) was used as an intraplate control with a 12-point titration in duplicate. Following a 30 min incubation of the protein-peptide complex with compounds at room temperature, a mixture of 40 ug/mL each streptavidin-coated donor and nickel chelate acceptor AlphaScreen beads (final 10 ug/mL) was added in a 1 uL dispense for a final volume of 4 uL. […]
# Potency is the fitted concentration of half-maximal effect; tags give direction and shape of the fitted curve.
# Sequence of UniProt P83916 (P83916 whole entry, looked up): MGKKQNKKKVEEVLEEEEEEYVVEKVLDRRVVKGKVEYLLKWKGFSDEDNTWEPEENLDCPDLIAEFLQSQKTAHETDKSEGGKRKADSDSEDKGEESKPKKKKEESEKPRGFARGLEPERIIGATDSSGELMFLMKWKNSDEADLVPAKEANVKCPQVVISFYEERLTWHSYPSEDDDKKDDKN
SMILES,"activity change, negative = inhibition",Potency
Cc1ccc(N(C(=O)Cn2nnc(-c3ccc(C)o3)n2)C(C(=O)NC2CCCC2)c2ccncc2)cc1 (stereo not given),inactive: 22.5%,–
CC(C)c1ccc(S(=O)(=O)c2cnc(SCC(=O)Nc3ccc(F)cc3F)nc2N)cc1,inactive: 19.9%,–
Cc1cc(C)cc(-n2ccnc2SCC(=O)Nc2ccc(C)c(Cl)c2)c1,–,"inconclusive: 11.2 µM [inhibitor, partial curve]"
O=c1cc(N2CCc3ccccc32)[nH]c(=O)n1-c1ccccc1Cl,inactive: 17%,–
CCC(=O)N1c2ccccc2CC1C(=O)NCCc1ccc(Cl)cc1 (stereo not given),inactive: 41.4%,–
O=S(=O)(O)c1cc(Cl)cc(N=Nc2ccc(O)cc2O)c1O,–,"inconclusive: 15.8 µM [inhibitor, partial curve, poor fit]"
CCOC(=O)N1CCC(N2CCN(C3CCCC3)C(CCO)C2)CC1 (stereo not given),inactive: 13.6%,–
c1ccc(-n2cccc2CNC2CCCCC2)cc1,–,"inconclusive: 70.8 µM [inhibitor, partial curve, poor fit]"
COc1ccc(NC(=O)CN(C)C(=O)C(Sc2ccccc2)c2ccccc2)cc1 (stereo not given),inactive: 27.3%,–
CCOC(=O)Cc1cc(=O)n2[nH]c(C)cc2n1,inactive: 11.2%,–
COc1ccc(OC)c(S(=O)(=O)N/N=C\c2c[nH]c3ccccc23)c1,inactive: 21.2%,–
COc1cc2[nH]c(=S)n(Cc3cccs3)c(=O)c2cc1OC,inactive: 44.4%,–
O=C(NN1C(=O)/C(=C/c2ccc(O)c([N+](=O)[O-])c2)SC1=S)c1ccccc1Cl,–,"inconclusive: 44.7 µM [inhibitor, partial curve]"
O=C(C1CCN(Cc2ccc(Cl)cc2)CC1)N1CCN(Cc2ccc3c(c2)OCO3)CC1,–,"inconclusive: 22.4 µM [inhibitor, full curve]"
O=C(Oc1ccc(Br)cc1C(=S)N1CCOCC1)c1ccc([N+](=O)[O-])cc1[N+](=O)[O-],–,"inconclusive: 17.8 µM [inhibitor, full curve]"
CN(C)c1ccc2c(c1)Sc1cc(N(C)C)ccc1N2C(=O)c1ccccc1,–,active: 12.6 µM
CN=c1scc(-c2cccs2)n1/N=C/c1ccc(O)c(O)c1O,–,active: 5.01 µM
CCCN1Cc2cc(OC)ccc2-c2ccccc2S1(=O)=O,inactive: 48.5%,–
O=[N+]([O-])c1cc2c(c3cccnc13)COCO2,–,"inconclusive: 70.8 µM [inhibitor, single point]"
O=C(O)c1ncc(-c2ccccc2)cn1,–,"inconclusive: 17.8 µM [inhibitor, partial curve, poor fit]"
CCOC(=O)c1cc2c(=O)n3ccccc3nc2n(Cc2ccco2)c1=NC(=O)c1ccc(OC)cc1OC,inactive: 7.92%,–
CCC(=O)Nc1nnc(S(=O)(=O)N2CCCCCC2)s1,–,"inconclusive: 10 µM [inhibitor, full curve]"
Cn1cc(S(=O)(=O)N2CCCCC2)cc1C(=O)NCc1ccc(Cl)cc1,inactive: -2.39% [at 57 µM],–
CCOC(=O)/C(C#N)=C/c1cc2ccc(C)cc2nc1Cl,–,"inconclusive: 39.8 µM [inhibitor, partial curve, poor fit]"

SMILES,"activity change, negative = inhibition",Potency
O=C(NCc1ccccc1Cl)c1cccc(NC(=O)c2ccccc2)c1,–,"inconclusive: 22.4 µM [inhibitor, partial curve, poor fit]"
CCOC(=O)C1CCN(C(=O)CC(C)c2ccccc2)CC1 (stereo not given),–,"inconclusive: 39.8 µM [inhibitor, single point]"
O=C(NCc1ccc(F)cc1)c1ccc(N2CCc3ccccc32)c([N+](=O)[O-])c1,–,active: 50.1 µM
Cc1ccc(O)c(CNc2cccc3cccnc23)c1,–,"inconclusive: 79.4 µM [inhibitor, partial curve]"
CN(C)c1ccc(CN(CC2CCCO2)C(=O)c2ccc(Br)cc2)cc1 (stereo not given),–,"inconclusive: 20 µM [inhibitor, full curve]"
CCC1=[N+](C)c2cccc3cccc(c23)N1C,–,"inconclusive: 89.1 µM [inhibitor, partial curve, poor fit]"
Cc1cccc(NC(=O)c2ccc(N3CCCCC3)c([N+](=O)[O-])c2)n1,–,"inconclusive: 8.91 µM [inhibitor, single point]"
Cc1ccc(CN(C)C(=O)c2cccc(S(=O)(=O)N3CCN(Cc4ccccc4)CC3)c2)o1,–,"inconclusive: 79.4 µM [inhibitor, single point]"
COc1ccc(C(=O)N2CCC(N3CCN(c4ccccc4)CC3)CC2)cc1,–,"inconclusive: 14.1 µM [inhibitor, partial curve, poor fit]"
CNc1cnn(-c2ccccc2)c(=O)c1Cl,–,"inconclusive: 3.55 µM [inhibitor, single point]"
CCC(C)N1CCN(C(=O)c2cc(OC)cc(OC)c2)CC1 (stereo not given),–,"inconclusive: 14.1 µM [inhibitor, partial curve, poor fit]"
CC(=O)C1=C(O)C(=O)N(c2ccc(O)cc2)C1c1ccccc1Cl (stereo not given),–,"inconclusive: 89.1 µM [inhibitor, single point]"
O=C(COC(=O)c1ccc(O)cc1)Nc1cccc(S(=O)(=O)NC2=NCCC2)c1,–,"inconclusive: 22.4 µM [inhibitor, partial curve, poor fit]"
COc1cc(OC)c(NC(=O)Cn2cnc3sc(C)c(S(=O)(=O)N4CCN(C)CC4)c3c2=O)cc1Cl,–,"inconclusive: 89.1 µM [inhibitor, single point]"
COc1ccc(S(=O)(=O)N(C)C[C@H]2Oc3ccc(NS(=O)(=O)c4ccc(F)cc4)cc3C(=O)N([C@H](C)CO)C[C@@H]2C)cc1,inactive: 37%,–
NC(N)=N/N=C(\N=Nc1ccccc1)c1ccc(Cl)cc1,–,"inconclusive: 39.8 µM [inhibitor, partial curve]"
Cc1ccc(OCC(=O)Nc2ccc3c4c(cccc24)CC3)c(C)c1,inactive: -3.62%,–
CN(C)c1ccc(/C=N/n2c(C3CCCCC3)n[nH]c2=S)cc1,–,"inconclusive: 28.2 µM [inhibitor, full curve]"
CN1CCN(CC(O)Cn2c3ccccc3c3ccccc32)CC1 (stereo not given),–,"inconclusive: 15.8 µM [inhibitor, full curve]"
COc1cc(O)c(C(CCN2CCN(c3ccccc3)CC2)c2ccc(N(C)C)cc2)c(OC)c1 (stereo not given),–,active: 20 µM
O=C(COc1ccccc1Br)NCCc1nc2ccccc2[nH]1,inactive: 39.3%,–
CC(=O)Nc1cccc(/C(C)=N/Nc2ccc(S(=O)(=O)Nc3ccccc3C(=O)O)cc2[N+](=O)[O-])c1,–,"inconclusive: 17.8 µM [inhibitor, full curve, poor fit]"
COc1ccccc1C1NC=C([N+](=O)[O-])C=C1[N+](=O)[O-] (stereo not given),–,"inconclusive: 39.8 µM [inhibitor, partial curve, poor fit]"
Clc1ccc(C2=Nn3c(Cn4nnc5ccccc54)nnc3SC2)cc1,–,"inconclusive: 25.1 µM [inhibitor, partial curve]"

SMILES,"activity change, negative = inhibition",Potency
O=C(NCc1cccc(C(F)(F)F)c1)N1CCN(S(=O)(=O)c2ccccc2F)CC1,inactive: 20.5%,–
CCOC(=O)C1CCCCN1Cc1cccc(OCc2ccccc2)c1 (stereo not given),–,"inconclusive: 28.2 µM [inhibitor, single point]"
COc1ccc(CNC(=O)C2CCCN2)cc1OC (stereo not given),–,active: 79.4 µM
Cc1cc(C)n2nc(SCC(=O)NC(=O)NCc3ccco3)nc2n1,–,"inconclusive: 22.4 µM [inhibitor, full curve]"
O=C(CCSc1ccccc1)NCc1cccnc1,–,"inconclusive: 28.2 µM [inhibitor, single point]"
c1csc(-c2cnc3n2CCCC3)c1,–,"inconclusive: 31.6 µM [inhibitor, partial curve]"
C=C(C)Cn1cnc2cc(C)c(C)cc21,–,"inconclusive: 39.8 µM [inhibitor, single point]"
CC(O)CC(C(=O)NNc1ccccc1)C(=O)NNc1ccccc1 (stereo not given),inactive: 50.7%,–
COc1ccc(C2(CNC(=O)c3ccc(OCC(C)C)cc3)CCOCC2)cc1,–,"inconclusive: 22.4 µM [inhibitor, single point]"
CCN(CC)c1ccc(/C=N/N=C(N)N)c(O)c1,inactive: 0%,–
O=C(NNC(=S)Nc1ccc(Cl)cc1Cl)c1ccc(N2CCOCC2)c([N+](=O)[O-])c1,–,"inconclusive: 17.8 µM [inhibitor, full curve, poor fit]"
CC1CCCCN1c1cc(C#N)c(C#N)cc1[N+](=O)[O-] (stereo not given),–,"inconclusive: 39.8 µM [inhibitor, partial curve, poor fit]"
O=S(=O)(Nc1ncccn1)c1ccc(Cl)cc1,inactive: 29.6%,–
CCOC(=O)COc1ccc(Br)cc1/C=C\c1[nH]c(=O)[nH]c(=O)c1[N+](=O)[O-],–,"inconclusive: 25.1 µM [inhibitor, single point]"
Cc1cc(C)n(CCc2nc(-c3ccc(C)o3)cs2)n1,–,"inconclusive: 50.1 µM [inhibitor, single point]"
Cc1ccccc1NC(=S)Nn1cnnc1,–,"inconclusive: 35.5 µM [inhibitor, partial curve]"
CC1C(c2ccc3c(c2)OCO3)c2cc3c(cc2OC1N1CCOCC1)OCO3 (stereo not given),–,"inconclusive: 15.8 µM [inhibitor, partial curve, poor fit]"
COc1ccc(-n2cc(-c3ccc(OC)c(OC)c3)[nH]c2=S)cc1,–,"inconclusive: 20 µM [inhibitor, partial curve, poor fit]"
Cc1[nH][nH]c(=O)c1C(c1c(C)[nH][nH]c1=O)c1cn(Cc2cccc3ccccc23)c2ccccc12,–,active: 28.2 µM
COc1ccc2cc(-c3[nH]ncc3CN3CCCN(c4ccccc4)CC3)ccc2c1,–,active: 20 µM
COC(=O)c1cc(C)ccc1OCc1ccc([N+](=O)[O-])cc1,–,"inconclusive: 89.1 µM [inhibitor, single point]"
O=C(OCc1nnc(-c2ccccc2)o1)c1ccc(S(=O)(=O)NCc2ccco2)cc1,–,"inconclusive: 25.1 µM [inhibitor, partial curve, poor fit]"
